Measurements: PubChem BioAssay AID1346428 (National Center for Advancing Translational Sciences (NCATS), 2018)
About 1,200 (2.5%) of roughly 48,000 compounds were called active. Not shown: some 2% with an inconclusive outcome.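 How the source made its calls: active means activation of at least 60% and not above a set upper limit (about 1 call in 100 departs from these limits); inconclusive means activation of 40% to 60%, or above that upper limit; inactive means activation under 40%.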 The list shows a part of the results.

Target: Probable G-protein coupled receptor 32 (Homo sapiens) (UniProt O75388)
Chain of UniProt O75388 (O75388 whole entry, looked up): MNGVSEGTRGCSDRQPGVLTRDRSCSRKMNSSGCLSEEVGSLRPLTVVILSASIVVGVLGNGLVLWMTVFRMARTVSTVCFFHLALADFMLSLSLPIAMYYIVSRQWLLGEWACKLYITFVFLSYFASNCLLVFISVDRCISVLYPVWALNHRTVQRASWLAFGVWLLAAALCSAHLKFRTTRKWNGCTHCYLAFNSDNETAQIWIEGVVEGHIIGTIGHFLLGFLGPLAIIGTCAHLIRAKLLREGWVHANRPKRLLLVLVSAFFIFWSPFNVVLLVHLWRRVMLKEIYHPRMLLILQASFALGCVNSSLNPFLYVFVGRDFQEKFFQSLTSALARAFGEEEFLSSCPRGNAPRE
Experiment: qHTS for Agonists of Human Resolvin D1 Receptor DRV1; further: 0% is about no effect
Settings: CHO-K1 GPR32 beta-arrestin PathHunter luminescence, 90 min; at 76.9 µM; stronger effect = higher value; zero percent set by DMSO-only wells
Method in brief: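 Agonism was scored by beta-Gal fragment complementation (chemiluminescent read, 1 h detection at ambient temperature) reporting beta-arrestin binding to GPR32 in engineered CHO-K1 cells. Compound treatment lasted 90 min at 37 C, normalized to a DMSO basal control.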

Compound	activation
Cc1cccc(NS(=O)(=O)c2ccc(NC(=O)N3CCCC3)cc2)c1	inactive: -2.29%
COc1ccc(C2CC(=O)N(Cc3ccccc3)c3c2c(C)nn3-c2nc(C)cc(C)n2)c(OC)c1 (centres undefined)	inactive: -16.4%
Cc1ccccc1CNC(=O)Nc1ccc2c(c1)N(C)C(=O)c1ccccc1S2	inactive: -14.5%
O=c1cc(-c2ccccc2)c2ccc3c(c2o1)CN(Cc1ccccc1)CO3	inactive: -13.2%
CCC(=O)N1CCc2cc(Br)cc(S(=O)(=O)CCC(=O)NCCc3ccccc3)c21	inactive: -2.91%
CCc1ccccc1NC(=O)Cn1cc2c(n1)CCC(C)C2 (centres undefined)	inactive: -14.4%
CCOC(=O)c1c(-c2ccccc2)oc2ccc(N(C(C)=O)S(=O)(=O)c3ccc(C)cc3)cc12	inactive: -6.03%
CCc1ccc(NS(=O)(=O)c2ccc3[nH]cc(C(=O)N(C)Cc4ccco4)c(=O)c3c2)cc1	inactive: -4.26%
C/C=C/c1ccc(O)c(OC)c1	inactive: 6.6%
CCCN(C(=O)CCNC(=O)Cn1cnc2ccccc2c1=O)c1cccc(C)c1	inactive: 12%
CC(C)CN(CCNC(=O)c1cn(C)c2ccc(S(=O)(=O)N3CCCC3)cc2c1=O)CC(C)C	inactive: 4.64%
Cc1nn(-c2ccc(N3CCCCC3)nn2)c(C)c1CCC(=O)NCc1ccc(Cl)cc1	inactive: -22.3%
COCCCNC(=O)C1CCN(c2cc(C)nc3c(-c4ccc(Cl)cc4)c(C)nn23)CC1	inactive: -1.68%
CCN(CC)CCCNC(=O)c1ccc2c(Cl)c3c(nc2c1)CCCC3	inactive: 15.4%
CCc1nn2c(=O)cc(COC(=O)C(CC)c3ccccc3)nc2s1 (centres undefined)	inactive: -8.97%
CCOC(=O)c1c(Oc2ccc(C(C)=O)cc2)nnc(-c2ccccc2)c1-c1ccccc1	inactive: -21.5%
CCOC(=O)Cn1c(=O)n(-c2ccccc2OC)c2nc(-c3ccc(C(C)C)cc3)nc(C(N)=O)c21	inactive: 29.4%
CC(C)CC1Nc2ccc(C(=O)NCCCOC(C)C)cc2NC1=O (centres undefined)	inactive: -11.3%
COc1ccc(C(=O)NCCn2cc(SCC(=O)Nc3ccc4c(c3)OCCO4)c3ccccc32)cc1OC	inactive: 34.2%
CCCNC(=O)CSc1nc(-c2ccc(OC)cc2)cc(C(F)(F)F)n1	inactive: -8.24%
COc1ccccc1N1CCN(CC(O)COc2cc(OC)c(OC)c(OC)c2)CC1 (centres undefined)	inactive: -3.91%
c1ccc(CN2CCC3(CCCc4ccccc43)CC2)cc1	inactive: -23%
CNCC[C@@H](Oc1ccccc1C)c1ccccc1	inactive: -12.4%
O=C(CC1N=C2c3ccccc3N=C(SCC(=O)Nc3ccc(F)cc3)N2C1=O)NCc1cccs1 (centres undefined)	inactive: -11.9%
O=C(NCc1ccccc1)c1ccc2oc(=O)n(Cc3ccccc3)c2c1	inactive: 12.7%
COc1ccc(CC(=O)N2CCc3cc(OC)c(OC)cc3C2COc2ccc(F)cc2)cc1OC (centres undefined)	inactive: -4.8%
COc1ccc2c(CNCc3cccs3)c(C(=O)O)n(Cc3ccccc3F)c2c1	inactive: -1.94%

Compound	activation
CN(C)c1ccc(NC(=O)CSC2=Nc3ccccc3C3=NC(CCC(=O)NCc4cccs4)C(=O)N23)cc1 (centres undefined)	inactive: -32.1%
NS(=O)(=O)c1ccc2nc(NC(=O)COc3ccc(Cl)cc3Cl)sc2c1	inactive: 2.42%
COCCNC(=O)c1ccc2c(c1)N=C(C)c1cc(C)ccc1S2	inactive: 10.4%
Cc1c(C(=O)NC(C)c2ccccc2)sc2nc3n(c(=O)c12)CCCC3 (centres undefined)	inactive: -14.1%
Cn1c(SCC(=O)Nc2nc3ccccc3s2)ncc(C(=O)Nc2ccc(F)cc2)c1=O	inactive: -4.78%
COc1cccc(C(=O)Nc2cccc(C(=O)OCc3cc(=O)n4c(C)csc4n3)c2)c1	inactive: -1.97%
CC1CCN(C(=O)c2cccc(NC(=O)c3nsc4ccccc34)c2)CC1	inactive: -4.82%
CCOC(=O)COc1ccc(C)cc1C(=O)c1ccn2nc(-c3ccc(F)cc3)cc2n1	inactive: -8.01%
COc1ccc(CCNC(=O)C2COc3ccccc3C2)cc1OC (centres undefined)	inactive: -4.75%
COc1ccc(CCNC(=O)Cc2c(C)c3cc4c(C)coc4c(C)c3oc2=O)cc1	inactive: -26.2%
CCCCSc1nnc2c(n1)OC(C)N(C(C)=O)c1ccccc1-2 (centres undefined)	inactive: 6.11%
CCc1ccccc1NC(=O)CC1Sc2ccc(C(F)(F)F)cc2NC1=O (centres undefined)	inactive: -2.43%
O=C(NCCc1ccccc1)c1ccc2c(c1)N(Cc1ccc(F)cc1)C(=O)c1ccccc1S2	inactive: -20.9%
COc1ccc(C(=O)NC(c2ccc(Cl)cc2)c2cc(Cl)c3cccnc3c2O)cc1 (centres undefined)	inactive: -41%
Cn1c(Oc2ccc(Cl)cc2)nc2c1c(=O)n(Cc1ccc(F)cc1)c(=O)n2C	inactive: 16.5%
Cc1cc(C)cc(NC(=O)CCC(=O)N2CCSc3ccccc32)c1	inactive: -16.7%
COc1cc(Cl)c(C)cc1NC(=O)c1cnc(N2CCOCC2)c2ccccc12	inactive: -12.1%
Cn1c(SCc2ccc(Br)cc2)nc2c([nH]c3ccccc32)c1=O	inactive: 1.1%
Cc1ccc(S(=O)(=O)NCCc2csc(-c3cccc(F)c3)n2)cc1	active: 80%
Cc1ccc(Nc2ccc(N3CCN(C(=O)c4ccc([N+](=O)[O-])cc4)CC3)nn2)cc1	inactive: 3.82%
Cc1cccn2c(=O)c3cc(C(=O)Nc4ccc(Cl)c(Cl)c4)sc3nc12	inactive: 3.27%
Cc1ccc(C)c(NS(=O)(=O)c2cc3c4c(c2)C(C)C(=O)N4CCC3)c1 (centres undefined)	inactive: -9.02%
O=C(c1ccc(Nc2nc3ccccc3n3nnnc23)cc1)N1CCN(c2cccc(C(F)(F)F)c2)CC1	inactive: -2.73%
CCOC(=O)c1cccc(NS(=O)(=O)c2cc3c(cc2C)NC(=O)CO3)c1	inactive: -5.39%
Cc1ccc(NC(=O)CN2C(=O)CC(C)Sc3ccccc32)c(C)c1 (centres undefined)	inactive: -19.6%
Cc1nc2ccn(Cc3ccco3)c(=O)c2cc1C(=O)NCc1ccc(F)cc1	inactive: -5.26%
Cc1c(Cl)cccc1-n1ncc(C(=O)N2CCOCC2)c1C1CCN(C(=O)OC(C)(C)C)CC1	inactive: -15.1%
